From the supplement of paper PMC11417369 come the findings set out here.

± gives the standard deviation of the averaged measurements. The list shows a part of the results.

The test relates to PfAP2-EXP AP2 domain (GST-tagged). The test can be described thus: gcPBM binding intensity (ln(normalized median fluorescence intensity)); higher = stronger DNA binding. In short, it runs like this: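 Binding of GST-tagged P. falciparum DNA-binding domains, expressed in E. coli and used at about 25 μg on average, was carried out for 1 h in 1× PBS containing 1% milk, 0.2 mg/ml BSA, 0.5% salmon testes DNA and 0.03% Triton X-100. The target was an Agilent 4 × 180k array of primer-extended double-stranded 36-bp intergenic genomic probes plus negative controls, read with Alexa488 anti-GST antibody at 488 nm. Binding intensity is the highest Masliner-normalised natural-log median intensity across replicate spots of either probe orientation.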
In the case of “TATACATAAAAAAATTTTACCAGGTTAATACAAATA [CACACA_negctrl_site1171]”, the “gcPBM binding intensity (ln)” value stood at 8.7 ± 0.4.
To “TTCCTTTGTTGTCGTTGTACTTATATGGTTATAATT [XGTACX_site3082]” belongs 9.31 ± 0.37.
To “TACCTTATGTTATATACACACATATAACATAATATA [CACACA_site6741]” belongs 8.52 ± 0.31; to “ATATATATATATAGTAGTACTCTCTCTGTATATATA [XGTACX_site3754]”, 10.1 ± 0.42; to “ATTTAGAAAAATAAAACACACATATATCTGTAAATA [CACACA_site6119]”, 8.46 ± 0.57.
As for “ATATGTAAAATATGGTGTACAATCAAATAAAAAAAA [XGTACX_site6270]”, the “gcPBM binding intensity (ln)” value came out at 8.84 ± 0.33.
To “ATTAATATATTTACCACACACCCATTTCGATTTTAT [CACACA_site3605]” belongs 8.88 ± 0.46; to “TATTTTATTTTTTGTTGTACATATATATTATATATA [XGTACX_site4513]”, 8.83 ± 0.41.
In the case of “CATATAAAAGGACACACACACACATATATATATATA [CACACA_site4674]”, the “gcPBM binding intensity (ln)” value was 10 ± 0.43.
With “ATGTTTAAATTTTTCAGTACATATATTCTAGTAAAA [XGTACX_site1010]” the figure was 8.4 ± 0.41; with “GATATATTACTTAAAATACACACCATGGAAAAGTTT [CACACA_site2606]”, 8.66 ± 0.46; with “GAATATGTTAACATTTGTACATAAAATTTTTTACAA [XGTACX_site2444]”, 8.7 ± 0.3.
With “AATATATATATATATCCACACACATACATATATTAA [CACACA_site7907]” the figure was 8.54 ± 0.35.
To “AAAATATTATTACAGAAACAAAAAGAAAAATATATA [GTGCAC_negctrl_site285]” belongs 8.66 ± 0.35; to “ATGGTTTTTATTTTATGTACTTACTAAAATGAATAA [XGTACX_site4317]”, 8.6 ± 0.38.
For the sequence “TACATAAAAATATATGCATGTTCTTATTTAATAAAA [TGCATGCA_site743]”, the “gcPBM binding intensity (ln)” value turned out to be 8.28 ± 0.35.
With “TAATTGTAGACATGCACACACAAATATTATATATGT [CACACA_site845]” the figure was 8.72 ± 0.45; with “CTAATATAGGTATGCACACACAATATGTACATATTT [CACACA_site7558]”, 8.77 ± 0.31.
With “ATATAAAAAAGGGAGGTAAATGAATGTGAAACCCAA [GTGCAC_negctrl_site359]” the figure was 8.88 ± 0.46; with “TTTTAATTAGTACAAACACACATATACACCCAAAAA [CACACA_site5422]”, 8.97 ± 0.4; with “TTTCAAATATATATAGCACACAAGGTATAATATAAA [CACACA_site877]”, 8.53 ± 0.37.
To “TTCACTAATAAATACGCACACATATACATATATATA [CACACA_site1383]” belongs 8.72 ± 0.17.
Consider “TAATTTTTTTTAAACACACACATTACATTCAAAAAT [CACACA_site127]”, for which the “gcPBM binding intensity (ln)” value came to 8.47 ± 0.3.
With “AAGGTATAGAAACACACACACGTGAATATAGTTTAA [CACACA_site5109]” the figure was 8.62 ± 0.38.
With “TATATAACATATATATGTACACATAATATCAGATTT [XGTACX_site1041]” the figure was 8.45 ± 0.33; with “CGTTATATAATAAAGGTGCATAGATATATCATTATA [GTGCAC_site9774]”, 8.63 ± 0.15; with “AATATTTTTCAATTTCATGTGCATTCATTGAAGTTA [CACACA_negctrl_site1232]”, 8.55 ± 0.42.
With “TTCTTAAATATATTCAACATACATAATATATAATCT [CACACA_negctrl_site1806]” the figure was 8.33 ± 0.45.
For “TATATATGTATATATTGTACTTTAAGACAAATATAT [XGTACX_site1052]”, the “gcPBM binding intensity (ln)” value came to 8.41 ± 0.46.
With “AAAAATAGAGCAGCTCTCATATTTTTATGTGCAATA [CACACA_negctrl_site837]” the figure was 8.42 ± 0.51; with “ACAAAAATATTTGTAAAAAGAAATATAAATAAATAA [TGCATGCA_negctrl_site357]”, 8.54 ± 0.42; with “GCATTTATGAAAAATGTACACACATCAAATGCTTAT [CACACA_site9347]”, 8.65 ± 0.52.
With “TATTACACACAATATTGTACACATAGGAAAAATATT [XGTACX_site1726]” the figure was 8.77 ± 0.4; with “AGGATATATTATATGTACACACACATATAAGGGATT [GTGCAC_negctrl_site47]”, 8.58 ± 0.41.
Take “TATTTTTTACATTCGTGTACGCATTTTTGTGAATTT [XGTACX_site5339]”: the “gcPBM binding intensity (ln)” value stood at 8.82 ± 0.32.
For the sequence “TCTAATACACAATGTTGTACATATTAATATATATGT [XGTACX_site2931]”, the “gcPBM binding intensity (ln)” value was found to be 8.69 ± 0.38.
With “ATCATTCTTAAACCGTGTACTTATTATTTTTTTTTT [XGTACX_site2798]” the figure was 9.01 ± 0.35; with “CATCCGTTGATATATGCATGCATATTGTTATTACCA [TGCATGCA_site868]”, 9.92 ± 0.16.
With “AAAATACACGATAGTTGTACATTAAATGTATACAAT [XGTACX_site360]” the figure was 8.71 ± 0.36; with “AAATGACTATATAAAAGTACTAGAAAGTATAAATAT [XGTACX_site944]”, 8.76 ± 0.4; with “AGGAGGATAGTTCACAGTACCCAGTAACTCTACGGA [XGTACX_site1997]”, 8.53 ± 0.43.
Turning to “CCTCTCATTTTATATAGTACATATTTCAAAAAAAAA [XGTACX_site488]”, the “gcPBM binding intensity (ln)” value was 8.43 ± 0.26.
With “GCATATATGGATATATAGGTATATATAAATGCAATA [GTGCAC_negctrl_site24]” the figure was 8.54 ± 0.39.
